Test results as given in PubChem BioAssay AID588342 (National Center for Advancing Translational Sciences (NCATS), 2011).
“And” between values parts separate entries of the source, which are not always exact repeats. Equal entries are not always repeated. Screen size: about 360,000 compounds; about 25,000 (6.9%) were called active. This list was built around the results that the source calls inconclusive (neither active nor inactive); the mix of calls is not that of the screen. The call rests on the fitted dose curve; in most records, active means well fitted inhibition curve with a large enough effect; inconclusive means small, poorly fitted or top-dose-only effect; inactive means flat fitted curve, though single readings scatter. Potencies beside an inconclusive call are fits to weak or partial responses and may not hold up.

The compounds below were run against Luciferin 4-monooxygenase (Photinus pyralis) (UniProt P08659) (assay: qHTS profiling assay for firefly luciferase inhibitor/activator using purifed enzyme and Km concentrations of substrates (counterscreen for miR-21 project)). Conditions: purified FLuc, luminescence inhibition; series mostly up to 57.5 µM.
Procedure, shortened: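 Purified P. pyralis luciferase (10nM final) with 10uM D-luciferin and 10uM ATP (Km levels) in 50mM Tris acetate pH 7.5, 10mM Mg acetate, 0.01% Tween-20, 0.05% BSA; qHTS 6-point titration, ~60 µM downward; luminescence read.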
Further: nearly all actives have a fitted effect of over 55% in size.
Potency means the concentration at half of the fitted maximal effect; tags describe the fitted curve by direction and shape.

Sequence of UniProt P08659 (P08659 whole entry, looked up): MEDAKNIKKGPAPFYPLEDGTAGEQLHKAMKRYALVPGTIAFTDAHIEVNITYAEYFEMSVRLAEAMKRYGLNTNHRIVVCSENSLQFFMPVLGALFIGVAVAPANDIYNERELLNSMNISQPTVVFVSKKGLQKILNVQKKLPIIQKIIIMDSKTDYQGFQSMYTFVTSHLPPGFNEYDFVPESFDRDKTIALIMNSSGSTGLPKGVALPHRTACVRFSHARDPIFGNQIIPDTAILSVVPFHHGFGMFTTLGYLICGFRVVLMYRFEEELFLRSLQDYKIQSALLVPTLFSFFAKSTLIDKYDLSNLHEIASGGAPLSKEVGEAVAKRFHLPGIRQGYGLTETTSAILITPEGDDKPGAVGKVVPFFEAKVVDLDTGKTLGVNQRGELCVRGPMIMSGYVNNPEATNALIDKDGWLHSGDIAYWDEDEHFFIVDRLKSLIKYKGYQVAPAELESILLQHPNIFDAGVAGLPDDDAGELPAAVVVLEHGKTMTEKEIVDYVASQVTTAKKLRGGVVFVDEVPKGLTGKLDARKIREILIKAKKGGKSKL

SMILES	Potency
CC1CC1C(=O)Nc1nc(-c2ccccn2)cs1 (stereo unspecified)	inconclusive: 23.9 µM [inhibitor, single point]
COc1ccc(/C=C2/C(=O)N(c3cccc(F)c3)N=C2C)c(OC)c1	inconclusive: 26.9 µM [inhibitor, partial curve, poor fit]
COc1ccc(Nc2cc(O)c3ncccc3c2)cc1	inconclusive: 30.1 µM [inhibitor, single point]
COc1ccccc1CNC(=O)c1ccc(SC)cc1OC	inconclusive: 30.1 µM [inhibitor, partial curve, poor fit]
O=C(CC(SCc1ccco1)c1ccc(O)cc1)c1cccs1 (stereo unspecified)	inconclusive: 26.9 µM [inhibitor, partial curve]
CCc1ccc2nc(N(CCCN(C)C)C(=O)c3ccc(C(=O)c4ccccc4)cc3)sc2c1	inactive
CC(=O)N(C)/C=C1\Sc2ccccc2C1=O	inconclusive: 23.9 µM [inhibitor, partial curve]
O=C(NCC1CCCO1)c1cc([N+](=O)[O-])ccc1N1CCC(Cc2ccccc2)CC1 (stereo unspecified)	inactive
Cc1ccc(SCCC(=O)N2CCC(C)CC2)cc1	active: 13.5 µM
Cc1nn(C)c(C)c1CNC(=O)Nc1ccc2c(c1)OCO2	inconclusive: 19 µM [inhibitor, partial curve]
Cc1cccc(N=Nc2ccc(O)c3ncccc23)c1	active: 10.7 µM
CC1COC(Cn2c3ccccc3c3ccccc32)O1 (stereo unspecified)	inactive
COc1ccc(-n2nnnc2SC(C)C(=O)NC2CCCC2)cc1 (stereo unspecified)	inactive
COc1ccccc1/C=C/c1nc(C#N)c(N(C)C)o1	active: 5.36 µM and active: 7.57 µM
Cn1ncc(N2CCN(C(=O)c3ccc(Cl)cc3)CC2)c(Cl)c1=O	inactive
CC(=O)c1cccc(NC(=O)CCCOc2ccc(C)cc2)c1	inactive
NC(=O)C1CCN(C(=O)c2cc3c(s2)CCCCC3)CC1	inconclusive: 21.3 µM [inhibitor, single point]
c1ccc2[nH]c(-c3ccncc3)nc2c1	inconclusive: 33.8 µM [inhibitor, partial curve, poor fit] and inconclusive: 30.1 µM [inhibitor, single point]
CSCc1ccc(C(=O)NCc2ccc(F)cc2)cc1	inconclusive: 7.57 µM [inhibitor, partial curve, poor fit]
Cc1cccc(/C=C2/Sc3ccc(C(=O)NCCCN4CCOCC4)cc3NC2=O)c1	inconclusive: 30.1 µM [inhibitor, partial curve, poor fit]
CCc1cccc(NC(=O)c2ccc(CNc3c(N4CCCC4)c(=O)c3=O)cc2)c1	inconclusive: 37.9 µM [inhibitor, single point]
Cc1c2cnn(CC(=O)NC(C)C)c(=O)c2c(C)n1Cc1ccccc1Cl	inconclusive: 23.9 µM [inhibitor, partial curve, poor fit]
Cc1cc2nc(-c3ccc(SCC(=O)N4CCc5ccccc54)nc3)[nH]c2cc1C	active: 0.135 µM
COc1ccc(Cl)cc1NC(=O)CSc1nccn1Cc1ccco1	inconclusive: 37.9 µM [inhibitor, partial curve, poor fit]

SMILES	Potency
O=C(CSc1ncn[nH]1)Nc1nc(-c2cccc([N+](=O)[O-])c2)cs1	inactive
CCc1ccc(CN2C(=O)c3ccccc3C2C(=O)NCCc2ccc(OC)c(OC)c2)cc1 (stereo unspecified)	inactive
COc1cccc(/C=N/NC(=O)CSc2ccccc2C)c1O	inconclusive: 26.9 µM [inhibitor, single point]
COc1ccc2nc(SCC(=O)Nc3nccs3)[nH]c2c1	inconclusive: 26.9 µM [inhibitor, single point]
Cc1onc(C(=O)Nc2ccc3c(c2)OCO3)c1[N+](=O)[O-]	inconclusive: 21.3 µM [inhibitor, partial curve, poor fit]
Cc1ccccc1NC(=O)c1sc2nc3c(cc2c1N)CCCC3	inconclusive: 2.13 µM [inhibitor, full curve]
CCSc1nc(N)nc(-c2cccs2)c1C#N	inconclusive: 26.9 µM [inhibitor, partial curve]
CC(=O)Nc1cccc(C(=O)/C=C/c2ccc(/C=C/C(=O)c3cccc(NC(C)=O)c3)cc2)c1	inactive
Cc1cc(C)n(C(N)=NC(=O)c2ccc([N+](=O)[O-])cc2)n1	inconclusive: 1.9 µM [inhibitor, partial curve, poor fit]
CCN(CC)c1ccc(N=Cc2c(C)[nH]c3ccccc23)cc1	inconclusive: 5.36 µM [inhibitor, single point]
Cc1cccc(NC(=S)NC2CC3C=CC2C3)c1 (stereo unspecified)	inconclusive: 21.3 µM [inhibitor, single point]
CSc1ccccc1C(=O)N1CCC(n2nccc2NC(=O)C(C)(C)C)CC1	inactive
CCOC(=O)c1sc(NC(=O)c2sccc2C)cc1C	active: 1.69 µM
Cc1ccc(Sc2cnc3ccccc3n2)cc1	active: 6.75 µM
COc1cc(C(=O)Nc2ccc3c(c2)OCO3)ccc1OCc1c(C)noc1C	inconclusive: 10.7 µM [inhibitor, partial curve, poor fit]
Cc1ccc(C(=O)Nc2ccc3c(c2)OCO3)cc1NC(=O)c1ccco1	inconclusive: 21.3 µM [inhibitor, single point]
O=C(OCc1csc(-c2ccccc2)n1)C1=NN(c2ccccc2)C(=O)CC1	inconclusive: 30.1 µM [inhibitor, partial curve, poor fit]
COc1ccc(-n2nc3ccc(N)cc3n2)cc1Cl	active: 1.51 µM
CCn1c(CNC(=O)COc2ccc(C(C)C)cc2)nnc1SCC(=O)Nc1ccccc1	inconclusive: 23.9 µM [inhibitor, single point]
CCN1C(=O)c2cccc3c(S(=O)(=O)Nc4nc(C)cs4)ccc1c23	inactive
Cn1c2c(c(=O)[nH]c1=O)C(c1cccc(O)c1)C1=C(N2)c2ccccc2C1=O (stereo unspecified)	inconclusive: 37.9 µM [inhibitor, single point]
Cc1ccc(NC(=O)CSc2nncn2N)cc1C	inactive
CCOC(=O)c1cc(S(=O)(=O)N2CCN(c3ccc(OC)cc3)CC2)[nH]n1	inactive
CC(C)N1C(=O)/C(=C\c2nc3ccccc3c(=O)[nH]2)c2ccccc21	inconclusive: 21.3 µM [inhibitor, single point]

SMILES	Potency
COc1cn(-c2ccccc2)nc1C(=O)Nc1ccc(C)cc1	active: 8.49 µM
CCOc1cc(/C=N/O)ccc1OCC(=O)Nc1cccc(C)c1	inconclusive: 30.1 µM [inhibitor, partial curve, poor fit]
Cc1ccc2c(CC(=O)NCc3ccc4c(c3)OCO4)coc2c1	inconclusive: 37.9 µM [inhibitor, partial curve, poor fit]
O=C(CSc1ccccn1)Nc1ccc(Cl)cn1	inactive
Cc1ccc(Nc2c(-c3ccc(N4CCOCC4)cc3)nc3ncccn23)cc1	inconclusive: 13.5 µM [inhibitor, partial curve, poor fit]
C=CCNC(=O)c1sc(-c2ccccc2)nc1C	inconclusive: 37.9 µM [inhibitor, partial curve, poor fit]
COc1ccc(-c2csc(NC(=O)CN3C(=O)CCC3=O)n2)cc1	inconclusive: 26.9 µM [inhibitor, partial curve, poor fit]
O=C(Nc1ccc(C(=O)N2CCCCC2)cc1)c1ccc(Br)cc1	inconclusive: 37.9 µM [inhibitor, partial curve, poor fit]
CC(=O)Oc1ccc(-c2cccc(C(=O)N3CCCCC3)c2)cc1	inconclusive: 19 µM [inhibitor, partial curve]
Cc1nn(-c2ccc(N3CCOCC3)nn2)c(C)c1CCC(=O)Nc1ccccc1	inconclusive: 30.1 µM [inhibitor, single point]
COc1ccccc1-c1coc2c(CN3CCOCC3)c(O)ccc2c1=O	inactive
Cc1c(C)n(CCCN(C)C)c2ncnc(NCc3ccccc3)c12	inactive
O=C(C1=C[C@@H](c2coc3ccccc3c2=O)C[C@@H](OCc2ccc(CO)cc2)O1)N1CCN(Cc2ccc3c(c2)OCO3)CC1	inactive
COc1ccc(-c2nn(-c3ccccc3)cc2CO)cc1	inconclusive: 37.9 µM [inhibitor, single point]
COc1ccc2[nH]cc(CCNC(=O)c3ccc4ccccc4n3)c2c1	inconclusive: 30.1 µM [inhibitor, partial curve, poor fit]
CN(C)c1cccc(C(=O)OCC(=O)N2CCc3ccccc3C2)c1	inconclusive: 37.9 µM [inhibitor, partial curve, poor fit]
O=C(COC(=O)c1cccc(F)c1)Nc1ccc2c(c1)OCCO2	active: 1.9 µM
CN1C(=O)C(C)(C)c2cc(S(=O)(=O)NCc3ccc(C(=O)Nc4ccc(Cl)cc4)cc3)ccc21	inconclusive: 23.9 µM [inhibitor, partial curve, poor fit]
CNC(=O)c1ccc2snnc2c1	inactive
Cc1ccc(NC(=O)CNC(C)c2ccccc2)cc1 (stereo unspecified)	inconclusive: 19 µM [inhibitor, single point]
OCCNc1nc(Nc2ccc(Cl)c(Cl)c2)nc2ccccc12	active: 6.01 µM
Nn1c(-c2ccccn2)nnc1-c1ccccn1	inconclusive: 37.9 µM [inhibitor, partial curve, poor fit]
COc1ccc(C(=O)Nc2ccc3nc(SCC(=O)N4CCCc5ccccc54)sc3c2)cc1	inconclusive: 3.38 µM [inhibitor, full curve]
